Measured values reported in PubChem BioAssay AID1345083 (National Center for Advancing Translational Sciences (NCATS), 2018).
Where “and” joins values, the source holds several entries; their conditions need not be identical. Identical values can stand only once. About 6,200 (6.6%) of roughly 94,000 compounds were called active. The shares of active, inactive and inconclusive entries below differ from those in the screen. The call rests on the fitted dose curve; in most records, active means well fitted inhibition curve with a large enough effect; inconclusive means small, poorly fitted or top-dose-only effect; inactive means flat fitted curve, though single readings scatter. Potencies beside an inconclusive call are fits to weak or partial responses and may not hold up.

Experiment: Cytotoxic Profiling in HEK 293 Cell Line of Diverse Libraries Using Quantitative High-Throughput Screening; further: nearly all actives have a fitted effect of over 60% in size
Conditions: HEK 293 viability, ATP luminescence (CellTiter-Glo), 48-72 h; activity change, negative = cytotoxicity: at 115 µM (top of the series) unless noted; series mostly up to 115 µM
Method in brief: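 HEK 293 cells seeded at 250 cells/well were exposed to compound for 48 or 72 hr at 37 degree Celsius. Viability taken as ATP content by CellTiter-Glo luminescence.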
On the % scale 0 is the no-effect control and ±100 the full control effect; potency means the concentration at half of the fitted maximal effect; tags describe the fitted curve by direction and shape.

Row | Structure (SMILES) | activity change, negative = cytotoxicity | outcome | Potency
1 | Cc1ccc(C(CC(=O)N2CCC(C)CC2)c2cn(C)c3ccccc23)cc1 (centres undefined) | inactive: -15.2% |  | 
2 | COCCN1C(=O)CS(=O)C12CCN(S(=O)(=O)c1c(C)noc1C)CC2 (centres undefined) | inactive: -15.4% |  | 
3 | COCC(=O)N1CCN(C(=O)c2cccc(-c3ccccc3OC)c2)CC1 |  | inactive | 
4 | Cc1ccc(Nc2ccnc(N3CCCC(C(=O)NC4CC4)C3)n2)cc1 (centres undefined) |  |  | inconclusive: 56.2 µM [inhibitor, partial curve, poor fit]
5 | Cc1nn(-c2cccc(Br)c2)c(C)c1[C@@H]1C=C[C@@H](NC(=O)CC(C)(C)CC(=O)O)C1 |  |  | inconclusive: 89.1 µM [inhibitor, single point]
6 | O=S(=O)(c1ccccc1)N(C1CC1)C1CCN(c2ncncn2)CC1 |  |  | inconclusive: 50.1 µM [inhibitor, partial curve, poor fit]
7 | CC(C)c1cccc(NC(=O)CN2C(=O)C(c3ccccc3)=NC2(C)C)c1 |  |  | inconclusive: 50.1 µM [inhibitor, partial curve, poor fit]
8 | COc1ccc(-c2noc([C@@H]3CCCN3C(=O)c3cccc(C)c3)n2)cc1OC |  |  | inconclusive: 56.2 µM [inhibitor, single point]
9 | O=C(CN1CC2CC(C1)[C@H]1CCCC(=O)N1C2)Nc1ccccc1 (some centres undefined) |  |  | inconclusive: 17.8 µM [inhibitor, full curve, poor fit]
10 | O=C1Nc2ccc(-c3cccc(C(F)(F)F)c3)cc2C(=O)N2CCN(C(=O)[C@@H]3CSCN3)C[C@H]12 |  |  | inconclusive: 79.4 µM [inhibitor, partial curve, poor fit]
11 | CCNC(=O)N1[C@@H](c2ccccc2)[C@@H](C(=O)OCC)C[C@]12CCCCN(CCOC)C2=O |  |  | inconclusive: 89.1 µM [inhibitor, partial curve, poor fit]
12 | O=C([C@@H]1C[C@H](F)CN1C(=O)c1ccc(OC(F)(F)F)cc1)N1CCCCC1 |  |  | inconclusive: 89.1 µM [inhibitor, single point]
13 | CCC(=O)N1CCN(c2nc3c(s2)CC(C(=O)O)CC3)CC1 (centres undefined) | inactive: -4.36% |  | 
14 | COc1ccc(C(=O)NC[C@@H]2C=C(C)[C@H](Cc3nc4ccncc4[nH]3)C[C@H]2C(C)C)cc1 |  |  | active: 89.1 µM
15 | C[C@H](C(=O)N1Cc2ccccc2CC2(CCN(Cc3ccncc3)CC2)C1)c1ccccc1 |  |  | active: 50.1 µM
16 | COCC1(C(=O)N2CCOC(c3ccc4cc(OC)ccc4c3)C2)CCC1 (centres undefined) |  |  | inconclusive: 39.8 µM [inhibitor, full curve, poor fit]
17 | CCc1nn(-c2ccc(F)cc2)c(Oc2ccccc2)c1CCC(=O)N(C)C(C)C |  |  | inconclusive: 44.7 µM [inhibitor, partial curve, poor fit]
18 | O=C(NC1CCN(C(=O)c2ccc(-c3cncnc3)cc2)CC1)c1ccc(Cl)cc1 |  |  | inconclusive: 44.7 µM [inhibitor, partial curve, poor fit]
19 | Cn1nc(C2CCN(C(=O)c3ccc(F)cc3)CC2)n(Cc2ccccc2)c1=O | inactive: -21.4% |  | 
20 | CC1(c2noc(-c3ccccn3)n2)CCN(C(=O)CCCc2nc3ccccc3s2)CC1 |  |  | active: 39.8 µM
21 | Cc1ccc(NC(=O)Cn2ccn3nc4c(c3c2=O)CCCCC4)cc1 |  |  | inconclusive: 44.7 µM [inhibitor, partial curve, poor fit]
22 | Cn1cc(-c2nc(N3CCOCC3)cc3c2CN(CC2CC2)C3=O)cn1 | inactive: -17.2% [at 172 µM] |  | 

Row | Structure (SMILES) | activity change, negative = cytotoxicity | outcome | Potency
23 | CC(C)CCN1CCC2(CC1)C(=O)NCN2Cc1ccc(Cl)cc1 | inactive: 1.53% |  | 
24 | O=C1[C@H]2CN(Cc3ccccc3Cl)C[C@H]2C(=O)N1Cc1ccc2c(c1)OCO2 |  |  | inconclusive: 50.1 µM [inhibitor, partial curve, poor fit]
25 | CC(=O)N1CCC(N2C(=O)c3c(c(C)nn3-c3ccccc3)C2C(C)C)CC1 (centres undefined) | inactive: -20.1% |  | 
26 | O=C(NCC(F)(F)F)c1cc(-c2cccc(C(F)(F)F)c2)c2cccn2n1 |  |  | active: 35.5 µM
27 | CNC(=O)c1cccnc1N1CCOC(c2ccc3cc(OC)ccc3c2)C1 (centres undefined) |  |  | inconclusive: 79.4 µM [inhibitor, partial curve, poor fit]
28 | O=C1Nc2ccccc2CN(Cc2ccc(C(F)(F)F)cc2)C12CCNCC2 |  |  | active: 28.2 µM
29 | CCCNC(=O)c1cc2c(=O)[nH]c(-c3ccccc3)cn2n1 |  |  | inconclusive: 35.5 µM [inhibitor, partial curve, poor fit]
30 | CC(C)(C)OCC(O)CN1CCC(=O)N(Cc2ccccc2)Cc2cc3c(cc21)OCO3 (centres undefined) |  |  | inconclusive: 79.4 µM [inhibitor, partial curve]
31 | CCOc1cccc(CNC(=O)c2ccc3c(c2)N(S(=O)(=O)c2ccccc2)CC3)c1 |  |  | inconclusive: 20 µM [inhibitor, full curve, poor fit]
32 | O=C(c1c(F)cccc1F)N1CCCC2(C1)NC(=O)N(Cc1ccc(Cl)cc1)C2=O (centres undefined) |  |  | inconclusive: 50.1 µM [inhibitor, partial curve, poor fit]
33 | Cc1nn(-c2ccccc2)c2c1C(C(C)C)N(C1CCN(C(=O)c3cccnc3)C1)C2=O (centres undefined) |  |  | inconclusive: 79.4 µM [inhibitor, partial curve, poor fit]
34 | CN(CC1CCOCC1)S(=O)(=O)c1cccc(Cl)c1 | inactive: -7.22% |  | 
35 | COc1ccc([C@H]2CN(C(=O)C3CCN(C(=O)N(C)C)CC3)C[C@@H]2N)cc1 | inactive: -15.8% |  | 
36 | Cc1nn(C)cc1C(=O)NCCn1c(C)cnc1C1CCC1 | inactive: -9% |  | 
37 | Cc1ccc(C(=O)N2CCC(n3cc(-c4nc(C5CC5)no4)nn3)C2)cc1C (centres undefined) |  |  | inconclusive: 50.1 µM [inhibitor, partial curve, poor fit]
38 | CCc1noc(-c2nc(-c3ccccc3OC)no2)n1 |  |  | inconclusive: 89.1 µM [inhibitor, single point]
39 | Cc1cnc(CCNC(=O)c2ccc(C#N)cc2)n1C1CCC1 |  | inactive | 
40 | COc1ccc(-c2ccc3c(c2)C(=O)N2CC[C@H](NC(=O)CCC(=O)O)[C@H]2C(=O)N3)cc1 | inactive: 1.64% |  | 
41 | CNC(=O)N1CCCC1c1nc(C2CN(C(=O)Cc3cccc(F)c3)C2)no1 (centres undefined) |  |  | inconclusive: 89.1 µM [inhibitor, single point]
42 | O=C(NC1CCN(c2ccc3nnc(-c4ccccc4)n3n2)CC1)C1CCCC1 | inactive: -13.6% |  | 
43 | O=c1n(CC2CC2)nc2n1CCC(NS(=O)(=O)c1ccc3c(c1)CCC3)CC2 (centres undefined) |  |  | inconclusive: 35.5 µM [inhibitor, partial curve, poor fit]
44 | O=[S+]([O-])(NCC1CN(Cc2ccc(O)cc2)CC12CN(c1ccccc1)C2)c1ccccc1 (centres undefined) |  |  | inconclusive: 44.7 µM [inhibitor, partial curve, poor fit]

Row | Structure (SMILES) | activity change, negative = cytotoxicity | outcome | Potency
45 | Cc1cc2c(-c3ccccc3O)nc(-c3c(C)noc3C)cc2[nH]1 |  |  | inconclusive: 63.1 µM [inhibitor, partial curve, poor fit]
46 | COc1ccccc1-c1cc(C(=O)NCc2c(C)cc(C)[nH]c2=O)c2c(c1)ncn2C |  |  | inconclusive: 50.1 µM [inhibitor, full curve]
47 | Oc1ccccc1CN1C[C@H](O)C[C@H]1c1nc(-c2ccc3c(c2)OCO3)no1 | inactive: -20.2% [at 172 µM] |  | 
48 | COc1ccccc1-c1ccc(C(=O)N2CCC(N[S+](=O)([O-])c3cccs3)CC2)cc1 |  |  | active: 89.1 µM and inconclusive: 44.7 µM [inhibitor, partial curve, poor fit]
49 | Cc1nc(N2CCC(C(=O)O)(n3cccn3)CC2)cc(-n2cccn2)n1 | inactive: 3.75% |  | 
50 | CN1C(=O)C2(CCN([S+](=O)([O-])c3cccc(C(F)(F)F)c3)C2)c2ccccc21 (centres undefined) |  |  | inconclusive: 56.2 µM [inhibitor, partial curve, poor fit]
51 | COC1CN(c2ccc(C)cc2)C12CCN(C(=O)CCCc1ccccc1)CC2 (centres undefined) |  |  | inconclusive: 79.4 µM [inhibitor, partial curve, poor fit]
52 | O=C(NCCc1ccccc1)N1CCCCCC1CN1CCOCC1 (centres undefined) | inactive: 1.18% |  | 
53 | COc1ccc(CC(=O)NCCNC(=O)c2ccc(-c3cccc(C(F)(F)F)c3)cc2)cc1 |  |  | active: 25.1 µM
54 | N#Cc1ccc(S(=O)(=O)N2CCCCCNC(=O)CC2c2ccccc2)cc1 (centres undefined) | inactive: -14.7% |  | 
55 | Cc1ccc(CN2CCC3(CCNCC3)C2)c(Cl)c1Cl |  |  | inconclusive: 17.8 µM [inhibitor, full curve, poor fit]
56 | CC1Oc2ccc(NC(=O)c3cccs3)cc2CN(CCc2ccc(F)cc2)C1=O (centres undefined) |  |  | inconclusive: 39.8 µM [inhibitor, partial curve, poor fit]
57 | O=C(NC1CCCCCC1)c1ccc2oc(-c3ccnc(Cl)c3)nc2c1 |  |  | inconclusive: 89.1 µM [inhibitor, single point]
58 | C=CCCC(CN1CCCOCC1)Oc1ccc2cccc(OC)c2n1 (centres undefined) |  |  | inconclusive: 28.2 µM [inhibitor, partial curve, poor fit]
59 | CC(=O)Nc1cccc(C(=O)N2CCCC(n3cc(-c4nc(C5CC5)no4)nn3)C2)c1 (centres undefined) | inactive: 8.87% |  | 
60 | O=c1n(-c2ccc([N+](=O)[O-])cc2)nc2n1CCN(Cc1ccsc1)C2 |  |  | active: 39.8 µM
61 | COc1ccc(CNC(=O)N2C[C@H](c3nc(-c4ccncc4)no3)[C@@H](C)C2)cc1 |  |  | inconclusive: 79.4 µM [inhibitor, single point]
62 | C=CCOC(=O)C1=C(C)N(Cc2ccc(F)c(F)c2)C(=O)CC1c1ccccc1Cl (centres undefined) |  |  | inconclusive: 79.4 µM [inhibitor, partial curve, poor fit]
63 | O=C(NCc1ccc2c(c1)OCO2)C1CCCN1C(=O)c1cccc(-c2ccccn2)c1 (centres undefined) |  | inactive | 
64 | Cc1ccc(NC(=O)N2C[C@H](c3nc(-c4cccnc4)no3)[C@@H](C)C2)cc1 |  |  | inconclusive: 79.4 µM [inhibitor, partial curve, poor fit]
